Reference: PMC4336329 (PLoS ONE, 2015)
Screen size: about 310,000 compounds; about 14,000 (4.5%) showed an effect of 50% or more. Effects have a minus sign here. The list shows a part of the results.

Target: human ether-à-go-go-related gene (hERG) potassium channel (human, UniProt Q12809)
Experiment: primary screen, population patch clamp on CHO cells stably expressing hERG
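Note: peak tail current of the secondary pulse compared with the same well before compound.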

Chain of human ether-à-go-go-related gene (hERG) potassium channel (Q12809 whole entry, looked up): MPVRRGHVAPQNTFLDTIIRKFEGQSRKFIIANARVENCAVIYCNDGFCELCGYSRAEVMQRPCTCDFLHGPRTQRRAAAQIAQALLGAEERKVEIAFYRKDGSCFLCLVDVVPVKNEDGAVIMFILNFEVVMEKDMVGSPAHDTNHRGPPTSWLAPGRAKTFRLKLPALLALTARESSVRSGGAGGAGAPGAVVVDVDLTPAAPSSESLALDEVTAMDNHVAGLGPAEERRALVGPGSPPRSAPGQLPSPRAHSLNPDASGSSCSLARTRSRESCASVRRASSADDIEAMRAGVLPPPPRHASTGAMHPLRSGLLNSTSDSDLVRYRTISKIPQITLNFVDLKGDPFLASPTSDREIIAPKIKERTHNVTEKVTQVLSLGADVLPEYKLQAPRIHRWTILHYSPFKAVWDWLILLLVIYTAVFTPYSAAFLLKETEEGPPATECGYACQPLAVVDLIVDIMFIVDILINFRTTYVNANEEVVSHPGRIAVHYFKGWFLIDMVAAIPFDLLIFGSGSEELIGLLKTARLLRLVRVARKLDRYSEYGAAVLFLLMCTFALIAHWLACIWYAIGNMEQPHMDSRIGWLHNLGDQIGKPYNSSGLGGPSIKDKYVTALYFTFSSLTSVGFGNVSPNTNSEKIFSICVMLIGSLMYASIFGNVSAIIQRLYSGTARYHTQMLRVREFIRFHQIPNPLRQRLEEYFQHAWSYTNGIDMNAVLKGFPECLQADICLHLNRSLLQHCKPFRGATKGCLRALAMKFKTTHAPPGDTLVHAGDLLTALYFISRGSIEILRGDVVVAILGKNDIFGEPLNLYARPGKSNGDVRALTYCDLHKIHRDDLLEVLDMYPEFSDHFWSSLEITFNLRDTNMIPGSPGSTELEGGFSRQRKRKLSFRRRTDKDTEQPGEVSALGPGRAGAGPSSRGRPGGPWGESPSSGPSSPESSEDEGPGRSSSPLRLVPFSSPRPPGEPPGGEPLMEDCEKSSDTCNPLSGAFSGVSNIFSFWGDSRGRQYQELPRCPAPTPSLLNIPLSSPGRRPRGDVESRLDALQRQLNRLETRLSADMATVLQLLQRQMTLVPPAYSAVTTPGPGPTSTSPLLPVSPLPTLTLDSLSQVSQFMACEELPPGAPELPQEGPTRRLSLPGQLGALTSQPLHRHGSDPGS

Structure (SMILES) | hERG current change (%, negative = inhibition) at 10uM [%]
CCOc1ccc(C(=O)Nc2c3c(nn2-c2ccc(C)cc2)CS(=O)C3)cc1OCC (stereo not shown) | 6.79
Cc1oc(-c2ccccc2F)nc1CS(=O)(=O)CC(=O)NC1CCCC(C)C1C (stereo not shown) | -18
O=C(CSc1nnc(Cn2nnc(-c3ccccc3)n2)n1-c1ccccc1)Nc1ccc(F)cc1 | 3.55
O=C(c1cc2cc(F)ccc2[nH]1)N1CCN(c2ccc(F)cc2)CC1 | -4.93
Cc1ccc(N(C)S(=O)(=O)c2nnc(NC(=O)c3ccco3)s2)cc1 | 9.73
COCCCNC(=O)CNC(=S)N(Cc1ccccc1)Cc1cccnc1 | -9.77
CCOC(=O)/C=C1/SCC(=O)N1CC(=O)Nc1cccc(F)c1 | 2.79
COc1cccc(C2CC3C(=O)C=CC2N3Cc2ccccc2)c1 (stereo not shown) | 2.61
O=S(=O)(Nc1nc(SCc2ccc(Cl)cc2)n[nH]1)c1ccc(F)cc1 | -3.34
COc1ccc(CNC(=O)[C@H](C)NC(=O)[C@@H]2Cc3ccccc3CN2)cc1 | 11.7
Cc1oc(-c2cccc(Cl)c2)nc1CS(=O)(=O)CC(=O)NC1CC1 | 6.61
COC(=O)c1sc2nc(-c3ccco3)ccc2c1N | -7.36
O=C(O)c1ccccc1C(=O)c1cccc2ccccc12 | 11.1
O=C(Cc1sc(-c2ccccc2)nc1-c1ccccc1)Nc1ccccc1 | 5.75
CCN(CC(=O)Nc1c(F)cccc1F)C(=O)Cc1ccc(OC)c(S(=O)(=O)N2CCOCC2)c1 | 8.69
CCOc1cc(C2C(C#N)=C(N)Oc3n[nH]c(-c4ccccc4)c32)ccc1O (stereo not shown) | -4.74
COc1ccc(S(=O)(=O)N(C)CC(=O)N2CCC(C(N)=O)CC2)cc1 | 5.54
O=C(/C=C/Nc1cccc(C(F)(F)F)c1)c1ccc(Oc2ncccn2)cc1 | 13.3
O=C(Nc1ccc(Cl)cn1)c1ccc(-c2ccc(Cl)c(Cl)c2)o1 | 10.1
CC(=O)c1ccccc1OC(=O)c1ccc([N+](=O)[O-])o1 | 18.5
COC(=O)c1ccc(-c2ccc([C@H]3[C@H]4C=CC[C@@H](C)[C@@H]4C(=O)N3Cc3ccccc3)c(F)c2)cc1 | 21.3
COc1ccc(-c2cc(=O)oc3cc(OCC(=O)NCCCn4ccnc4)ccc23)cc1 | -65.4

Structure (SMILES) | hERG current change (%, negative = inhibition) at 10uM [%]
CCn1nnnc1SCC(=O)N1CCN(c2ccccc2)CC1 | -10.4
O=C1c2ccccc2-c2c1cccc2C(=O)N(CCO)CCO | -0.51
CNC(=O)Nc1cccc2cccnc12 | 2.73
CCC(C)N=Cc1c(NCc2ccco2)nc2c(C)cccn2c1=O (stereo not shown) | -7.78
O=[N+]([O-])c1cc(C(F)(F)F)ccc1Sc1nccn1Cc1ccccc1 | -30.3
Cc1ccc(C)c(N(C(=O)Cn2nnc3ccccc32)C(C(=O)NCc2ccco2)c2ccncc2)c1 (stereo not shown) | 0.187
Cc1cccc(OCCCn2c(CCNC(=O)C(C)C)nc3ccccc32)c1 | -23.6
Cc1ccc(NC(=O)NCC2CCN(Cc3cc(C)ccc3Cl)CC2)c(C)c1 | -58.3
CC(C)c1ccc(NC(=O)COc2nncc3ccccc23)cc1 | 14.4
COCCCNC(=O)Nc1ccc(F)cc1F | 12.1
CC(=O)O[C@@]12CO[C@@H]1C[C@@H](O)[C@@]1(C)C(=O)[C@H](O)C3=C(C)[C@@H](OC(=O)[C@H](O)[C@@H](NC(=O)c4ccccc4)c4ccccc4)C[C@@](O)([C@@H](OC(=O)c4ccccc4)C12)C3(C)C (stereo partly shown) | 5.84
Fc1cccc(Nc2ncnc3[nH]ncc23)c1 | 21.4
CC(=O)c1ccc(NC(=O)Oc2ccccc2)cc1 | -6.44
COc1ccc(S(=O)(=O)N(CC(=O)NCc2ccco2)c2ccc(F)cc2)cc1 | -3.88
Cc1sc(NC(=O)c2ccccc2F)c(CN2CCCCC2C)c1C (stereo not shown) | -7.58
COc1ccc(-c2nnc(SCCC(=O)O)n2-c2ccccc2)cc1OC | -8.98
Cc1c(O)c(CN2CCCC2)cc2c3c(c(=O)oc12)CCC3 | 15.2
Cc1ccc(SCc2cc(=O)n3[nH]c(C)nc3n2)cc1 | 9.38
O=C(COc1ccc(Cl)cc1Cl)Nc1ccc(-c2ccc(N3CCOCC3)nn2)cc1 | 13.7
O=C(NNc1nc(=O)c2cccnc2s1)c1ccccc1O | 20.9
CN(CC(=O)NCc1ccc(F)cc1)CC(=O)Nc1ccc(Cl)c(C(F)(F)F)c1 | -30.2
COC(=O)CC1SC(=O)NC1=Nc1ccccc1 (stereo not shown) | 5.89

Structure (SMILES) | hERG current change (%, negative = inhibition) at 10uM [%]
Cn1c(=O)c([N+](=O)[O-])c(NCCCn2ccnc2)c2ccccc21 | 26.5
O=C(CSc1n[nH]c(-c2ccccc2)n1)c1ccc(O)c(O)c1 | -6.58
CCc1ccccc1OCCCN1CCCC1.O=C(O)C(=O)O | -17.6
CCNc1nc(NC(C)(C)C)nc(N(CC)n2cnnc2)n1 | 0.705
COc1ccc(NC(=S)N2CCCC2c2ccc(OC)c(OC)c2)cc1 (stereo not shown) | 1.54
CC(C)Cn1c(N)c(C(=O)COC(=O)c2cc(C(F)(F)F)nc3c(C(F)(F)F)cccc23)c(=O)n(C)c1=O | 7.27
N/C(Cc1ccccc1Sc1ccccc1)=N\O.O=C(O)/C=C\C(=O)O | -22.2
COc1ccc(Cc2nc3c4c(ncn3n2)Oc2c(ccc3ccccc23)C4c2ccc(OC)c(OC)c2)cc1 (stereo not shown) | 14.7
CCCCCCC(C)n1[nH]c(=O)c2c(C)cc(=O)[nH]c21 (stereo not shown) | -0.0654
Cc1cccc(NC(=O)c2c([N+](=O)[O-])c(C(C)(C)C)nn2C)c1 | 12.7
CC(=O)Nc1ccc(S(=O)(=O)N2CCN(C)CC2)cc1 | 1.48
O=C(O)CCSc1nnc(SCC(=O)NCC(F)(F)F)s1 | 7.55
O=C(NCc1ccco1)c1ccccc1-c1ccccc1 | -2.62
CCOc1cccc2sc(N(CCN(CC)CC)C(=O)c3ccc(S(=O)(=O)N4CCCCC4)cc3)nc12.Cl | -62.4
CNS(=O)(=O)c1cc(NC(=O)CCCNC(=O)c2ccc(Cl)cc2)ccc1C | 17.6
CCN(CC)C(=O)COc1ccc(-c2ccccc2)cc1 | -36
O=C(Nc1nnc(-c2ccco2)o1)C1CC1 | 32.2
O=C(O)CCC(=O)N1CCc2cc(S(=O)(=O)NCc3ccc(Cl)cc3)ccc21 | 4.01
COc1cc(C)ccc1OCc1cc(C(=O)N2CCCCCCC2)no1 | 9.78
COc1ccc(N2CCN(c3ncnc4scc(-c5ccc(F)cc5)c34)CC2)cc1 | -0.492
C(=N\N1CCN(C2c3ccccc3-c3ccccc32)CC1)/c1cccnc1 | 2.63
COc1ccc(-c2[nH]ncc2-c2nc(C)cs2)c(O)c1 | 13.5

Structure (SMILES) | hERG current change (%, negative = inhibition) at 10uM [%]
O=C(Oc1c(CN2CCOCC2)cc(Cl)c2cccnc12)c1ccc(F)cc1 | -37.8
O=C(CCC1CCCN(Cc2ccc(O)c(Cl)c2)C1)NCc1ccccc1F (stereo not shown) | -43.2
CCCOC(=O)c1cc(-c2ccc(/C=C3/C(=O)N(C)C(=O)C(C#N)=C3C)o2)ccc1Cl | 8.94
Cc1oc(-c2ccc(Cl)cc2)nc1CS(=O)CC(=O)NCCCN1CCOCC1 (stereo not shown) | -3.95
CCOc1ccc(C(=O)N2CCN(CCc3ccccc3)CC2)cc1OCC | -78.8
CCOc1ccc(/C=C/C(=O)NCCc2ccc(OC)c(OC)c2)cc1 | -10.5
COc1ccc(N2CCN(CCCNC(=O)C(=O)c3c(C)n(C)c4ccccc34)CC2)cc1 | -64.1
Oc1ccc(-c2[nH]ncc2-c2ccc(Cl)cc2)c(O)c1 | -3.33
COc1ccc(OC)c(/C=N\NC(=O)c2cc3c(ccc4ccccc43)o2)c1 | -5.27
Cc1n[nH]c(=O)c2c(NC(=O)COC(=O)c3cccc(OC(F)F)c3)oc(C)c12 | -18.3
CCCN(CCC)CCNC(=O)C1CCN(Cc2nc(-c3ccc(Cl)cc3)oc2C)CC1 | -60.6
Cn1c(Cn2nnc3ccccc32)nnc1SCC(N)=O | 9.69
CC(=O)c1ccc(-c2nc3c4ccccc4ccn3c2C(C)=O)o1 | -0.222
Cc1cc(C(=O)OCC(=O)NC2(C#N)CCCCC2)c(C)o1 | 8.21
O=C(Nc1ccc(F)cc1)c1cccnc1N1CCOCC1 | 8.37
CCNS(=O)(=O)c1ccc(CCC(=O)Nc2ccccc2)cc1 | 8.65
COC(=O)[C@@H](Cc1ccccc1)NC(=O)NCCc1ccccc1 | 18.8
CC1CCCCC1NC(=O)CSc1nncs1 (stereo not shown) | 17.1
CCOC(=O)CCSc1nc2c(c(C(F)(F)F)c1C#N)CCC2 | 3.58
